Experimental data taken from PubChem BioAssay AID1347165 (National Center for Advancing Translational Sciences (NCATS), 2019).
Where “and” joins values, the source holds several entries; their conditions need not be identical. Identical values can stand only once. The campaign covered roughly 220,000 compounds. About 5,700 (2.6%) were called active. Inconclusive means that the source gave no clear call. Such entries were picked first, then a sample of the others. Calls come from the whole dose curve; as a rule, active = well fitted inhibition curve with a large enough effect; inconclusive = small, poorly fitted or top-dose-only effect; inactive = no such curve, though single readings can be large or run the other way. A potency beside an inconclusive call is a rough fit, not a confirmed value.

These compounds were tested against Lysine-specific demethylase 5B (Homo sapiens) (UniProt Q9UGL1) (assay: Primary screen for KDM5B Histone Demethylases FDH-coupled qHTS). Conditions: FDH-coupled NADH fluorescence (FDH is formaldehyde dehydrogenase); activity change, negative = inhibition: at 57.7 µM (top of the series) unless noted.
Chain of UniProt Q9UGL1 (Q9UGL1 whole entry, looked up): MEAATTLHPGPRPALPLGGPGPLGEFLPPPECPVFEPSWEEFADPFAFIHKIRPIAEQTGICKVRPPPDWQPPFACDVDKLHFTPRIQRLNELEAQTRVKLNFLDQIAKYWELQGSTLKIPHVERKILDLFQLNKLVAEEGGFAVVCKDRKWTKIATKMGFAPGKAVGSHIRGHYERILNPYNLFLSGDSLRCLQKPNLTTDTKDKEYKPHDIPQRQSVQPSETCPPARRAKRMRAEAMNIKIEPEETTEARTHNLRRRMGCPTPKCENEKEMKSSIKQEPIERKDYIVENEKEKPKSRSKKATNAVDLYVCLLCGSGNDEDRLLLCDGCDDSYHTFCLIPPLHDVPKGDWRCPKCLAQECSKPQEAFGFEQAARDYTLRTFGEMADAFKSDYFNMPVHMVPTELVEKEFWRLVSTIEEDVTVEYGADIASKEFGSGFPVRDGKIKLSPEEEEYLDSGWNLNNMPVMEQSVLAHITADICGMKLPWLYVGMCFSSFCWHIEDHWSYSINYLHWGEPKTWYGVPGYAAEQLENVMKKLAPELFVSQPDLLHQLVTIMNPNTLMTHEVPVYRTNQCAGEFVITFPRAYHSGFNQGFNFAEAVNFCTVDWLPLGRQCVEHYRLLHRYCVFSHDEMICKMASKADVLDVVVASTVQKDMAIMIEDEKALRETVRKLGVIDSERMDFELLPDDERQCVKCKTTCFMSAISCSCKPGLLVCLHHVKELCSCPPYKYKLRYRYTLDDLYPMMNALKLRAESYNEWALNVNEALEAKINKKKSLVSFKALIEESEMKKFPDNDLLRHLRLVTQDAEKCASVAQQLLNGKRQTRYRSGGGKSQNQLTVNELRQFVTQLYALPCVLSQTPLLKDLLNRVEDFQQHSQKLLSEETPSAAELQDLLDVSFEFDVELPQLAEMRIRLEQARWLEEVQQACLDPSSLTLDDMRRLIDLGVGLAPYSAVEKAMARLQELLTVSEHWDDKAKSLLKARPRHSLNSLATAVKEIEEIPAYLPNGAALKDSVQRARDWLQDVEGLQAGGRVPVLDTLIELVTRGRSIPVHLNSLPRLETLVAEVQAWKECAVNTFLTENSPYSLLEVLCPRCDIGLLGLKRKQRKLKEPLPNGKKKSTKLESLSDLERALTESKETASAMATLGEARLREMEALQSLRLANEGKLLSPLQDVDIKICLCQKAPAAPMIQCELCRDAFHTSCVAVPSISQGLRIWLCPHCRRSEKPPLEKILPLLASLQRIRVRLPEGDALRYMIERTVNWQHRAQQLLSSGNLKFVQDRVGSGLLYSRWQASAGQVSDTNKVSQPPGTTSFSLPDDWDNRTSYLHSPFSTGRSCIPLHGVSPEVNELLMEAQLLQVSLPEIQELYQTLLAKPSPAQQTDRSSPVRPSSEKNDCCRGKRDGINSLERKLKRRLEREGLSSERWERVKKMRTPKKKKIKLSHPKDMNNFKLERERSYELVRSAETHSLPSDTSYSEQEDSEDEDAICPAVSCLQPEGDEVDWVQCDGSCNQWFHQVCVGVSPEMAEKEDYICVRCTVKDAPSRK
Method in brief: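 qHTS format, multiple compound concentrations. Buffer 50 mM HEPES pH 7.5/0.01% Tween-20; 200 nM KDM5BΔAP final; 10 min compound preincubation; substrate-mix levels 12.5 µM peptide, 25 µM α-KG, 0.25 mM NAD⁺; 30 min RT; ΔRFU.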
Note: nearly all actives have a fitted effect of over 70% in size.
Potency is the fitted concentration of half-maximal effect; tags give direction and shape of the fitted curve.
Throughout, for activity change, negative = inhibition: 0% is about no effect.

SMILES	Potency	activity change, negative = inhibition
CC(C)NC(=O)CCC[C@@H]1[C@H]2CCCN3CCC[C@@H](CN1Cc1cccnc1)[C@@H]23	inconclusive: 25.1 µM [inhibitor, single point]	–
Cn1nc(C(=O)N2CCCC(c3nc4ccccc4s3)C2)c2ccccc2c1=O (centres undefined)	inactive	–
Cc1cc(C(F)(F)F)c2c(C)nn(-c3ccccc3)c2n1	inconclusive: 28.2 µM [inhibitor, partial curve, poor fit]	–
CCCC(=O)n1nc(NCc2ccc(OCC)cc2)nc1NCc1ccc(OCC)cc1	inconclusive: 39.8 µM [inhibitor, single point]	–
CCN1C(=O)COC[C@@H]1[C@H](O)c1ccc(NC(=O)c2cc(C)nn2C)cc1	inactive	–
CCC(C)NC(=O)Cc1csc2nc(C)c(-c3cc(C)n(-c4ccc(C)cc4C)n3)c(=O)n12 (centres undefined)	active: 28.2 µM	–
N#Cc1cccc(-c2cn3c(n2)N(C(=O)c2cccc(F)c2)CCC3)c1	active: 22.4 µM	–
CCCc1noc(-c2cccn3c(CNC(=O)c4cc(Cl)ccc4F)nnc23)n1	active: 22.4 µM	–
Cc1ccc(/C(O)=C2\C(=O)C(=O)NC2c2ccc(C)cc2)cc1 (centres undefined)	inconclusive: 31.6 µM [inhibitor, partial curve, poor fit]	–
COC(=O)C1Cc2c([nH]c3ccccc23)C2(CCN(Cc3ccccc3)CC2)N1 (centres undefined)	inactive	–
O=C(CSc1nc2cc([N+](=O)[O-])ccc2o1)Nc1cccc(Cl)c1	inactive	–
O=C(Cc1ccc(F)cc1)N1CCC2(CC1)CN[S+](=O)([O-])c1cccnc1O2	inconclusive: 56.2 µM [inhibitor, partial curve, poor fit]	–
O=C(CC1CCCN(c2cnn(CC3CC3)c(=O)c2)C1)NCc1ccc(F)cc1 (centres undefined)	inactive	–
Cc1ccccc1OCC(=O)Nc1ccc2nc(SCC(=O)N(C)c3ccccc3)sc2c1	inconclusive: 17.8 µM [inhibitor, partial curve, poor fit]	–
O=C(NC1CCN(c2cc(-c3ccc(Cl)cc3)[nH]n2)CC1)c1cccnc1	inactive	–
O=C1Nc2ccccc2CC12CCN(CC1CC1)CC2	inconclusive: 100 µM [inhibitor, partial curve]	–
CC(C)(C)OC(=O)N1CCC(c2c(C(=O)N3CCN(c4ccc(Cl)cc4)CC3)cnn2-c2ccc(F)cc2F)CC1	inactive	–
COCc1cn(C[C@H]2C[C@@H](NC(=O)c3cncnc3)[C@H](O)[C@@H]2O)nn1	inactive	–
COc1cccc(NC(=O)C2CCCN(c3nnc(-n4c(C)ccc4C)s3)C2)c1 (centres undefined)	inconclusive: 25.1 µM [inhibitor, partial curve, poor fit]	–
COCCCn1c(=N)c(S(=O)(=O)c2ccccc2)cc2c(=O)n3cc(C)ccc3nc21	inactive	–
CN1CC(=O)N(c2ccccc2)Cc2c1ncnc2N1CCc2ccccc2C1	active: 25.1 µM	–
C=CCNC(=O)N[C@H]1CO[C@H]2[C@@H]1OC[C@@H]2Nc1nccc(C2CCCC2)n1	inconclusive: 31.6 µM [inhibitor, single point]	–

SMILES	Potency	activity change, negative = inhibition
CN(C)CCNC(=O)c1cc(-c2ccc(F)cc2)cc2ncn(C)c12	active: 28.2 µM	–
CCOc1cc(/C=C2/NC(=O)NC2=O)cc(I)c1OCC	inactive	–
Cn1cc(-c2cc3n(n2)CCC(=O)N3CC(=O)O)c2ccccc21	inconclusive: 39.8 µM [inhibitor, single point]	–
O=C1c2ccc([N+](=O)[O-])cc2C(=O)N1c1ccc([N+](=O)[O-])cn1	inconclusive: 0.891 µM [inhibitor, full curve, poor fit]	–
O=C(Nc1ccc(Cl)cc1Cl)c1ccn2cncc2c1	active: 35.5 µM	–
COCCn1c(C)cc(O)c(C(c2ccc(C)cc2)N2CCCCC2)c1=O (centres undefined)	inconclusive: 39.8 µM [inhibitor, single point]	–
O=C(c1ccc(N2CCC(O)CC2)nc1)N1CCC(Oc2cccnc2)CC1	inactive	–
COc1cccc(NC(=O)Cn2c(C)cc(=O)n3nc(-c4cccs4)nc23)c1	inconclusive: 22.4 µM [inhibitor, partial curve, poor fit]	–
COc1ccc(CNc2ncnc3c2CN(C2CCCNCC2)C(=O)CN3C)cc1OC (centres undefined)	inconclusive: 50.1 µM [inhibitor, partial curve]	–
CC(=O)N1c2ccccc2C(=O)C1N1CCN(c2cccc(C(F)(F)F)c2)CC1 (centres undefined)	inconclusive: 25.1 µM [inhibitor, single point]	–
c1ccc2c(Nc3nc(-c4ccncc4)nc4ccccc34)cccc2c1	inconclusive: 35.5 µM [inhibitor, single point]	–
Cc1cc(C(F)(F)F)c(C#N)c(SCc2cccc3ccccc23)n1	inactive	–
O=C(CCNc1c(-c2ccccc2)nc2cnccn12)NC1CCCC1	active: 28.2 µM	–
Cc1nn(-c2ccccn2)c(C)c1[C@@H]1C=C[C@@H](NC(=O)NC(C)C)C1	inconclusive: 28.2 µM [inhibitor, single point]	–
C#CC(C)(CC)NC(=O)c1cc2c(n(-c3ccc(Cl)cc3)c1=O)CC(C)(C)CC2=O (centres undefined)	inconclusive: 1.78 µM [inhibitor, full curve, poor fit]	–
COc1ccccc1C1=NN(C(=O)C(C)C)C(c2ccc3nccnc3c2)C1 (centres undefined)	inactive	–
Cc1nc(CN2C[C@H](C(=O)NCc3cccc(F)c3)C[C@@H]2c2ccc(F)cc2)cs1	inconclusive: 31.6 µM [inhibitor, single point]	–
COc1ccc(OC)c(Nc2ncnc3c2cnn3-c2ccc(C)cc2)c1	inconclusive: 39.8 µM [inhibitor, partial curve, poor fit]	–
Cc1cc(C)cc(NS(=O)(=O)c2ccc3[nH]cc(C(=O)N4CCCCCC4)c(=O)c3c2)c1	inconclusive: 15.8 µM [inhibitor, partial curve, poor fit]	–
COc1ccccc1N1CCN(C(=O)c2cc3cn(C4CCCC4)cc3s2)CC1	inconclusive: 14.1 µM [inhibitor, partial curve]	–
Cc1ccc(CN2CC(C(=O)NCCc3ccncc3)C3(CCOCC3)C2)s1 (centres undefined)	inconclusive: 25.1 µM [inhibitor, single point]	–
CN(C)C[C@@H]1CN(Cc2ccccc2)C[C@H]1NC(=O)c1cc(C2CC2)[nH]n1	inconclusive: 15.8 µM [inhibitor, single point]	–

SMILES	Potency	activity change, negative = inhibition
COCCN1CCN(C[C@@H]2C=C(C)[C@H](Cc3nnc(-c4cccnc4)o3)C[C@H]2C(C)C)CC1	inactive	–
Cn1nc(-c2ccccc2F)c2cc(C(=O)N3CCN(c4ccc(F)cc4)CC3)sc21	inconclusive: 28.2 µM [inhibitor, partial curve, poor fit]	–
CCCN1CCN(CCCNC(=O)Cn2c(-c3cccs3)cc3ccccc32)CC1	inconclusive: 35.5 µM [inhibitor, partial curve, poor fit]	–
O=C(C1Cn2cccc2C(=O)N1Cc1ccccc1)N1CCN(c2ncccn2)CC1 (centres undefined)	active: 17.8 µM	–
CCC(C)NC(=O)Cn1c(=O)n(Cc2ccc(C(=O)NCc3ccccc3OC)cc2)c(=O)c2ccccc21 (centres undefined)	inconclusive: 3.55 µM [inhibitor, partial curve, poor fit]	–
COCc1c(C(=O)N/N=C(\C)c2ccncc2)nnn1-c1nonc1N	inconclusive: 10 µM [inhibitor, partial curve, poor fit]	–
Cn1c(=O)n(C/C=C/c2ccccc2)c(=O)c2c1nc1n2CCN1c1ccc(Cl)cc1	inconclusive: 50.1 µM [inhibitor, single point]	–
COc1ccc(Cn2c(SCc3ccc(C(=O)NCCc4ccccc4)cc3)nc3cccnc32)cc1	inconclusive: 31.6 µM [inhibitor, partial curve, poor fit]	–
COc1ccc(S(=O)(=O)N2CCCC2)cc1NC(=O)c1ccccc1F	inconclusive: 39.8 µM [inhibitor, partial curve, poor fit]	–
CCN(CC)c1nn2c(=O)c(C(=O)NCc3cccc(C)c3)cnc2s1	inconclusive: 31.6 µM [inhibitor, partial curve, poor fit]	–
COc1cc(/C=N/Nc2nc(N3CCCC3)nc(N3CCCC3)n2)ccc1OCc1ccccc1F	inconclusive: 20 µM [inhibitor, single point]	–
COC(=O)C1=C(C)OC(N)=C(C#N)C1c1ccc(C#N)cc1 (centres undefined)	inconclusive: 31.6 µM [inhibitor, partial curve, poor fit]	–
CN1CCC(Nc2ncc(C(C)(C)C(=O)O)c(N3CCOCC3)n2)CC1	inactive	–
CC(=O)Nc1ccc(C(C)=O)cc1OCc1ccccc1C	inactive	–
COCCN1C(=O)c2ccccc2C(C(=O)Nc2nc3ccccc3s2)C12CCCCC2 (centres undefined)	inconclusive: 28.2 µM [inhibitor, single point]	–
COc1cc(CN2CCc3nc(N4CCN(c5ccccc5F)CC4)ncc3C2)ccc1OC(C)C	inconclusive: 2.24 µM [inhibitor, full curve, poor fit]	–
CCOC(=O)COc1ccc2cc(-c3ccc(OC)c(OC)c3)c(=O)oc2c1	inconclusive: 35.5 µM [inhibitor, partial curve, poor fit]	–
CCC(=O)N1CCCc2cc(S(=O)(=O)Nc3ccc(C)c(C)c3)ccc21	–	inconclusive: -30.6% [inhibitor]
O=C(Nc1ccc2nc(SCC(=O)N3CCCc4ccccc43)sc2c1)c1ccc(F)cc1	inconclusive: 15.8 µM [inhibitor, partial curve, poor fit] and inconclusive: 28.2 µM [inhibitor, partial curve, poor fit]	–
N=C(N)c1cc(N)cc(C(=N)N)c1	inconclusive: 39.8 µM [inhibitor, single point]	–
